# Results published in paper PMC4336329 (PLoS ONE, 2015).
# Hit rate of the full screen: of about 310,000 compounds, about 2,200 (0.71%) showed an effect of 50% or more. Effects have a minus sign here. This is one part of the list.
# Biological target: human ether-à-go-go-related gene (hERG) potassium channel (human, UniProt Q12809)
# Assay: primary screen, population patch clamp on CHO cells stably expressing hERG
# human ether-à-go-go-related gene (hERG) potassium channel, sequence (Q12809 whole entry, looked up): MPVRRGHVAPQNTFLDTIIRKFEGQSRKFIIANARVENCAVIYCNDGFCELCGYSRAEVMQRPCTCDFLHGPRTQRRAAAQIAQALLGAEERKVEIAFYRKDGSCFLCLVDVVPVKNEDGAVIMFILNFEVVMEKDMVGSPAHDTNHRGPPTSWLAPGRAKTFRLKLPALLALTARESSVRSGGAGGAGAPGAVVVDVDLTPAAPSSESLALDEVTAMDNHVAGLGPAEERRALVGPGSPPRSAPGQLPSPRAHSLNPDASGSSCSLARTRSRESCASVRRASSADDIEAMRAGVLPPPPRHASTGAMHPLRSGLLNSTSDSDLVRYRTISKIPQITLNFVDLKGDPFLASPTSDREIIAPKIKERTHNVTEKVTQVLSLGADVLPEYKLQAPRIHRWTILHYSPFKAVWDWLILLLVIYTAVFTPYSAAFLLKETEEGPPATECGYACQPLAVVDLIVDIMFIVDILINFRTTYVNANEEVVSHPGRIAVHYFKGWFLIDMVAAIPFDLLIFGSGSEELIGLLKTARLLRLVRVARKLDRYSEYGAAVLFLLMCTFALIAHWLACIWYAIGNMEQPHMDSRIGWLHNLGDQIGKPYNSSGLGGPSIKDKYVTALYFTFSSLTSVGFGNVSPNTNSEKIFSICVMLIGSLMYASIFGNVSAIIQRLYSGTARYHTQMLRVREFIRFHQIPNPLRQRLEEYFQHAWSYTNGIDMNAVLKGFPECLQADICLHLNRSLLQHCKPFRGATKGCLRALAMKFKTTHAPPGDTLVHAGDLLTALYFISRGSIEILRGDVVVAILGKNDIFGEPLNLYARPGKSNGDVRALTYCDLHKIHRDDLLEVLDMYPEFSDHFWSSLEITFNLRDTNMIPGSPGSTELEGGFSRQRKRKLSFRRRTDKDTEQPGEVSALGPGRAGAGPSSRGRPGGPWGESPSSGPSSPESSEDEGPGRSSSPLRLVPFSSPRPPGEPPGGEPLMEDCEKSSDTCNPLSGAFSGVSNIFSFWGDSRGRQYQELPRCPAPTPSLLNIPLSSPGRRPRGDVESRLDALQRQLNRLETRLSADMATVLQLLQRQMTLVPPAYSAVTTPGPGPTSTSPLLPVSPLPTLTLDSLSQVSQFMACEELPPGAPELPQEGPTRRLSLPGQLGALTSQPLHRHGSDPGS
row,SMILES,"hERG current change (%, negative = inhibition) at 1uM [%]"
1,O=c1c2cc([N+](=O)[O-])ccc2nc2n1CCCC2,6.25
2,Cc1ccc(N=C2N=C(N)c3ccccc32)cc1C,-2.72
3,O=Cc1c(-c2ccc(Cl)cc2)oc2ccc(O)cc12,15.1
4,Cc1ccc(S(=O)(=O)NCCc2nnc3ccc(SCC(=O)Nc4nc(C)cs4)nn23)cc1,-3.88
5,CCOC(=O)c1ccccc1OCc1cc(/C=N/NC(=O)c2ccncc2)ccc1OC,12.8
6,COCCn1c(SCCN2CCOCC2)nc2c1c(=O)[nH]c(=O)n2C,18.4
7,Cc1ccsc1C(=CCCN1CCC[C@@H](C(=O)O)C1)c1sccc1C.Cl,6.96
8,COc1ccc([C@H]2CC(=O)C=C(/C=C/Cc3ccccc3)C2)cc1,12.3
9,O=C(NCc1ccco1)C(C(=O)c1ccc(F)cc1)n1ccccc1=O (stereo not shown),10.5
10,CCOC(=O)C1CCN(c2c(NC3CCCCCCC3)c(=O)c2=O)CC1,9.35
11,Cc1ccc(/C=N/Nc2ccc(C(=O)O)cc2)s1.O=S(=O)(O)O,8.71
12,O=C(Nc1ccc2c(c1)OCO2)N1CCN(C(=O)C2CCCO2)CC1 (stereo not shown),1.36
13,CS(=O)(=O)Nc1ccc(C2=NN(S(=O)(=O)c3ccccc3)C(c3cccs3)C2)cc1 (stereo not shown),-21.7
14,O=S(Cc1cc(Oc2ccccc2)nc(-c2ccccc2)n1)c1ccccc1 (stereo not shown),7.28
15,Cc1ccc(C)c(OCC(=O)N/N=C/c2c(C)nn(-c3ccccc3)c2Cl)c1,16.7
16,COC(=O)C1=C(c2ccccc2OCc2ccccc2)C[C@@H]2CC[C@H]1N2C(=O)NCc1ccc(OC)cc1,14.2
17,Cc1ccc(NC(=O)CNc2ccccc2N2CCCC2=O)cc1S(=O)(=O)N1CCCCC1,-1.31
18,C=CCn1c(-c2cccn(Cc3cccc(Cl)c3)c2=O)n[nH]c1=S,8.73
19,Cc1ccc(S(=O)(=O)N2CCOCC2)cc1NC(=O)COC(=O)C1COc2ccccc2O1 (stereo not shown),1.74
20,CCn1c(=O)c(C(=O)NCc2ccc(Cl)cc2)c(O)c2ccccc21,20.3
21,CSCCC1NC2(C(=O)Nc3c(C)cc(Cl)cc32)[C@@H]2C(=O)N(C3CCCC3)C(=O)[C@H]12 (stereo partly shown),5
22,COc1cccc2c(=O)cc(C)n(CC(=O)Nc3ccc(C)c(C)c3)c12,10.8
23,CS(=O)(=O)N(CC(=O)N1CCc2ccccc2C1)Cc1ccc(Cl)cc1,4.9
24,Cc1onc(-c2ccccc2Cl)c1C(=O)Nc1cnn(Cc2ccccc2)c1,-4.57
25,CC(=O)C1=C(C)N(Cc2ccccc2)C(=O)N[C@H]1c1cccc(C(F)(F)F)c1,3.11
26,CC1(C)SC(=S)N(NC(=O)Nc2ccccc2)C1N(O)C(=O)Nc1ccccc1 (stereo not shown),13.5
27,COc1ccc(CCN)cc1OC,10.2
28,Cc1ccc(O)c(CNc2nc3ccccc3n2C)c1,8.31

row,SMILES,"hERG current change (%, negative = inhibition) at 1uM [%]"
1,O=C(NCC(=O)N1CCC(Cc2ccccc2)CC1)c1ccc(Cl)cc1,-13.1
2,COc1ccccc1NC(=O)Cn1cc(C#N)c2ccccc21,-12.2
3,COc1cccc(/C(O)=C2\C(=O)C(=O)N(c3ccccn3)C2c2ccccc2OC)c1 (stereo not shown),10.7
4,CCCCN(C(=O)NC(=O)Nc1ccccc1C)S(C)(=O)=O,9.96
5,CCC(C)C(NC(=O)C1CCC(C)CC1)C(=O)NCc1ccco1 (stereo not shown),14.5
6,COc1ccc(N2CCN(C(=O)CCNS(=O)(=O)c3ccc(Br)s3)CC2)cc1,-1.67
7,O=c1c2sccc2nc(SCc2cc(=O)n3cc(Cl)ccc3n2)n1Cc1ccccn1,7.01
8,CC1=NN(Cc2c[nH]c3ccccc23)C(C)(C)C1,2.18
9,CC(=O)NCCOc1nc(N(C)C)nc(N2CCOCC2)n1,6.42
10,CCOc1ccc(C(=O)Nc2ccc(NC(=O)c3cccs3)cc2)cc1[N+](=O)[O-],-6.74
11,CCOC(=O)/C(C(N)=NCC(C)C)=C(/O)c1ccccc1,11.9
12,O=S1(=O)C=C(SCc2cccc(Cl)c2)Nc2ccccc21,-3.35
13,Cl.Fc1ccccc1COc1ccc(Br)cc1CNCc1cccnc1,-12.2
14,CCOC(=O)c1ccc(N(C(=O)c2ccco2)C(C(=O)NC2CCCC2)c2ccncc2)cc1 (stereo not shown),6.2
15,COc1ccc(OC)c(NC(=O)c2ccc3c(c2)C(=O)N(c2ccc(OC(C)=O)cc2)C3=O)c1,10.8
16,NS(=O)(=O)c1cc(C(=O)O)cc(N2CCCC2)c1Oc1ccccc1,2.3
17,CCOc1ncccc1C(=O)OCc1cn2cc(Cl)ccc2n1,-3.62
18,O=C(CN1C(=O)C2C3CCC(C3)C2C1=O)N1CCN(Cc2ccccc2)CC1 (stereo not shown),1.96
19,O=C(Nc1nnc(-c2cccs2)o1)c1cccc(C(F)(F)F)c1,10.4
20,CCN(CC)CCOC(=O)c1c(C)oc2ccc(OC)cc12.Cl,-19.1
21,Nn1c(COc2ccccc2F)nnc1SCC(=O)NC1CC1,10.8
22,Cn1cc(CN2C[C@H]3CC[C@H]2C3)c(-c2ccccc2F)n1,-1.17
23,CC(C)(C)N1CC(C(=O)Nc2cccc(Cl)c2Cl)CC1=O (stereo not shown),14.2
24,COc1ccc2ccc(Oc3ncccn3)cc2c1,0.277
25,CCOC(=O)c1sc(NC(C)=O)c(C(=O)OCC)c1C,4.13
26,CC(C)OCCCNC(=O)c1ccc(Br)cc1,-3.73
27,COc1ccc(C(=O)C2C(c3ccc(-c4ccccc4[N+](=O)[O-])o3)NC(=O)NC2(O)C(F)(F)F)cc1 (stereo not shown),10.6
